Experimental data from the GPR68 mutational scans of Howard et al. (2025).

B1: GPR68, Q15743 (parent)
chain: MGNITADNSSMSCTIDHTIHQTLAPVVYVTVLVVGFPANCLSLYFGYLQIKARNELGVYLCNLTVADLFYICSLPFWLQYVLQHDNWSHGDLSCQVCGILLYENIYISVGFLCCISVDRYLAVAHPFRFHQFRTLKAAVGVSVVIWAKELLTSIYFLMHEEVIEDENQHRVCFEHYPIQAWQRAINYYRFLVGFLFPICLLLASYQGILRAVRRSHGTQKSRKDQIQRLVLSTVVIFLACFLPYHVLLLVRSVWEASCDFAKGVFNAYHFSLLLTSFNCVADPVLYCFVSETTHRDLARLRGACLAFLTCSRTGRAREAYPLGAPEASGKSGAQGEEPELLTKLHPAFQTPNSPGSGGFPTGRLA

Assays:
[1] = variants of: B1; test: cAMP reporter score (Enrich2 score, wild type = 0); higher = more signal; HEK293T, FACS bins
[2] = variants of: B1; test: surface expression score (Enrich2 score, wild type = 0); higher = more signal; HEK293T, FACS bins

Row | Variant | cAMP reporter score ([1]; pH 5.5) | cAMP reporter score ([1]; pH 6, modulator: ogerin) | cAMP reporter score ([1]; pH 6.5, modulator: ogerin) | surface expression score [2] | cAMP reporter score ([1]; pH 6)
1 | MGNITADNSSMSCTIDHTIHQTLAPVVYVTVLVVGFPANCLSLYFGYLQIKARNELGVYLCNLTVADLFYICSLPFWLQYVLQHDNWSHGDLSCQVCGILLYENIYISVGFLCCISVDRYLAVAHPFRFHQFRTLKAAVGVSVVIWAKELLTSIYFLMHEEVIEDENQHRVCFEHYPIQAWQRAINYYRFLVGFLFPICLLLASYQGILRAVRRSHGTQKSRKDQIQRLVLSTVVIFLACFLPYHVLLLVRSVWEASCDFAKGVFNAYHFSLLLTSFFCVADPVLYCFVSETTHRDLARLRGACLAFLTCSRTGRAREAYPLGAPEASGKSGAQGEEPELLTKLHPAFQTPNSPGSGGFPTGRLA [N278F] | -1.85 | -0.564 | -0.91 | -2.31 | –
2 | MGNITADNSSMSCTIDHTIHQTLAPVVYVTVLVVGFPANCLSLYFGYLQIKARNELGVYLCNLTVADLFYICSLPFWLQYVLQHDNWSHGDLSCQVCGILLYENIYISVGFLCCISVDRYLAVAHPFRFHQFRTLKAAVGVSVVIWAKELLTSIYFLMHEEVIEDENQHRVCFEHYPIQAWQRAINYYRFLVGFLFPICLLLASYQGILRAVRRSHGTQKSRKDQIQRLVLSTVVIFLACFLPYHVLLLVRSVWEASCDFAKGVFNAYHFSLLLTSFGCVADPVLYCFVSETTHRDLARLRGACLAFLTCSRTGRAREAYPLGAPEASGKSGAQGEEPELLTKLHPAFQTPNSPGSGGFPTGRLA [N278G] | 0.193 | -0.788 | -0.397 | 0.888 | -0.76

The least precise scores are not listed. Two further conditions of the source, in which the scores hardly spread, are not listed. Names with del lack the residues named; names with ins carry added residues between the positions named. For part of these data: The data file names ogerin without a concentration.
